Several values for one entry are separate records, joined by “and”; a condition that tells them apart may be missing. Identical values can stand only once.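 Growth conditions: 96-well plates. Treatment: test compound, 48 hours, 5 concentrations. Analysis: linear interpolation between bracketing concentrations; unreached endpoints set to highest concentration. Abbreviation: GI50, concentration required for 50% inhibition of growth. TGI: concentration producing complete growth inhibition.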 Peptide text beside a SMILES is read from it. * marks the point of attachment. Boc = CC(C)(C)OC(=O)*; OBn = c1ccc(CO*)cc1

The test system of this assay is NCI-H322M lung. The experiment in a line: NCI anticancer screen, dose series, 48 h.
As to `O=C(CC(=O)c1cccc([N+](=O)[O-])c1)C(=O)Nc1nc([N+](=O)[O-])cs1`, the TGI was > 100 µM.

Regarding `O=c1[nH]c(=O)n(C2OC(CO)C(O)C2O)cc1OCc1ccccc1` (stereo not drawn), the TGI is > 100 µM.

In the case of `N#Cc1nc(C2SCCCS2)oc1N`, the TGI was > 100 µM. Consider `CN1CCN(CCCN2c3ccccc3Sc3ccc(C(F)(F)F)cc32)CC1`, for which the GI50 is 6.29 µM; the TGI was 19.1 µM and 21.4 µM and 25.5 µM.

Take `COC(=O)C1=C(C)N(NC(=O)c2cccc(Cl)c2)C(C)(O)C12CCOC2=O` (stereo not drawn): the TGI is > 100 µM. In the case of `CCC[CH2][Ge]([CH2]CCC)([CH2]CCC)[O]C(=O)C(OC(C)=O)c1ccccc1` (stereo not drawn), the GI50 is 3.64 µM and the TGI is 24.1 µM. In turn, `CC1OC(n2cc(I)c(=O)[nH]c2=O)C=CC1=O` (stereo not drawn) gave a TGI of 32.4 µM. Take `CCOC(=O)NN(C(=O)OCC)C(C(=O)c1ccc(Cl)cc1)=C1NCCN1`: the TGI was > 100 µM. For `CCCCCCCCCCNC(=S)OCCCC`, the TGI was 91.3 µM. As for `Nc1ncnc2c1c(C(=O)NO)cn2C1OC(CO)C(O)C1O` (stereo not drawn), the GI50 is 0.465 µM and the TGI amounted to 73.3 µM. Consider `Cc1ccc(N=Nc2c(C)nn(C(=O)CC(=O)Nc3ccc(Cl)cc3)c2C)cc1C`, for which the TGI is > 100 µM. In the case of `CN1CCN(CCCOc2ccc3nc(Nc4ccc(C(F)(F)F)c(Cl)c4)ccc3c2)CC1`, the GI50 was 1.69 µM and the TGI was found to be 3.41 µM. Regarding `Cc1nc2sc(C(=O)Nc3cccc(Cl)c3C)c(N)c2cc1C(=O)c1ccccc1`, the GI50 was 0.403 µM and the TGI was > 50 µM.

Regarding `CCOC(=O)c1nc2cc(C(F)(F)F)ccc2nc1Oc1ccc(C(=O)OC)cc1`, the TGI was > 100 µM.

With `COc1ccc(C(=O)c2cc(OC)c(OC)c(OC)c2)cc1/C=C/C(=O)c1ccc2c(c1)OCO2`, the GI50 was 4.04 µM and the TGI is > 100 µM. For the molecule `CC(=O)OC1CC(C)c2c(Cl)ncnc21` (stereo not drawn), the GI50 is > 100 µM and the TGI was > 100 µM. For `CC(=O)OCc1c(C)c2ccccc2n1C(C)=O`, the TGI was > 100 µM. Take `O=C1Cc2c(-c3ccccc3)cc(-c3ccc4ccccc4c3)nc2-c2ccccc2N1`: the TGI is > 100 µM.

As for `CN(C)c1ccc(/C=C2\N=C(c3ccccc3)N(/N=C3\C(=O)Nc4ccccc43)C2=O)cc1`, the TGI was > 100 µM. Turning to `C=CCCCCn1c2ccccc2c2c(C)c3c[n+](C)ccc3c(C)c21`, the TGI is 3.86 µM.

Regarding `CCCCC1=CC1(C#N)[N+](=O)[O-]` (stereo not drawn), the TGI is > 100 µM.

Take `Cc1n(CC(C)C)c2c([n+]1CC(=O)c1ccc([N+](=O)[O-])cc1)C(=O)c1ccccc1C2=O`: the TGI worked out at 0.262 µM. As to `CCCC(=O)[O-].CCCC(=O)[O-].N.N.N.N.[Co+3].[O-][Cl+3]([O-])([O-])[O-]`, the TGI is > 100 µM. For `CC(C)C(NC(=O)CNC(=O)C1CCCN1C(=O)C(NC(=O)OC(C)(C)C)C(C)C)C(=O)NCC(=O)OCc1ccccc1` (stereo not drawn) (Boc-VPGVG-OBn; configuration not given here), the TGI is > 100 µM.

With `C[C@]12CC/C(=N\OC(=O)Nc3ccccc3)C=C1CC[C@@H]1C2CC[C@@]2(C)C1CC[C@@H]2OC(=O)Nc1ccccc1` (stereo partly drawn), the TGI is > 100 µM. On to `COc1cc2c(cc1OC)CN1CCc3ccccc3CC1C2` (stereo not drawn), for which the TGI was > 100 µM. As for `O=C1C2C3CCC(C2C(=O)N1CO)C1C2C(=O)N(CO)C(=O)C2C31` (stereo not drawn), the TGI is > 100 µM. For `COc1ccc2c(c1)c(-c1nc(-c3cn(C)c4ncccc34)cs1)cn2CCCCN1CCOCC1`, the GI50 is 1.55 µM and the TGI stood at 3.58 µM.

`CCCN(CCC)c1ccc(/C=N/NC(=O)c2cccnc2)cc1`: the GI50 is 77 µM and the TGI is > 100 µM. On to `O=C(Oc1ccc(OC(Oc2ccccc2)c2ccccc2)cc1)c1ccccc1` (stereo not drawn), for which the TGI was > 31.6 µM.

In the case of `CCOC(=O)NC(C(C(=O)OCC)C(=O)OCC)(C(F)(F)F)C(F)(F)F`, the TGI is > 100 µM.

On to `c1ccc(C2=NN[C@H](c3cn(-c4ccccc4)nc3-c3ccccc3)C2)cc1`, for which the GI50 was 3.81 µM and the TGI is > 100 µM. For `Cc1ccc(C(=O)c2[nH]c(Nc3ccc(Cl)cc3)c(C(=S)Nc3ccccc3)c2N)cc1`, the TGI was found to be 27.7 µM.

The record behind these values is PubChem BioAssay (NCI).
